Measurements reported in the supplement of paper PMC4723716.
± gives the uncertainty stated by the source. Over roughly 9,900 compounds, “viability index relative to DMSO control” has its median near 1; the lowest 2% begin near 0.85. The list shows a part of the results.

tested on: Plasmodium falciparum NF54 stage V gametocytes; assay: viability index relative to DMSO control (fraction); higher = less gametocyte killing; conditions: 2.5 µM, library set: Broad Institute DOS, incubation time: 72 h
Summary of the method: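 Viability index is the count of red-stained particles in a well divided by the plate mean of solvent-only wells. Particles of 20–70 µm2 were counted in one imaged field per well after one to two hours with 3 µl of 2.5 µM MitoTracker Red CMXRos and 0.13% saponin. Before staining, P. falciparum NF54 stage V gametocytes in serum-free medium (0.75% gametocytemia, 1.25% hematocrit, 10 µl, 1,536-well plates) were kept with compound at 2.5 µM for 72 hr at 37°C under low oxygen.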

Point of comparison: C[C@@H]1CN([C@H](C)CO)C(=O)c2cc(N(C)C)ccc2O[C@@H](C)CCCCO[C@@H]1CN(C)Cc1ccc(C(=O)O)cc1, viability index 1.12 ± 0.053. Against it:
- COc1ccc(S(=O)(=O)N(C)C[C@@H]2Oc3ccc(NC(=O)Cc4cn(C)c5ccccc45)cc3C(=O)N([C@@H](C)CO)C[C@@H]2C)cc1 — lower, 0.947 ± 0.04
- COc1cccc(S(=O)(=O)Nc2ccc3c(c2)C(=O)N(C)C[C@@H](OC)[C@H](C)CN(Cc2ccccc2F)[C@H](C)CO3)c1 — lower, 0.9171 ± 0.0073
- COCC(=O)N1CC[C@@H]2[C@H]1c1cc(-c3cccc(F)c3)ccc1N(C)[C@H]2CO — lower, 0.9829 ± 0.0057
- CC(C)NC(=O)N1[C@@H](CO)[C@@H]2c3ccccc3N(C)C[C@@H]21 — within error, 1.01 ± 0.17
- C[C@H]1CN([C@@H](C)CO)C(=O)CCCn2nncc2CO[C@@H]1CN(C)Cc1ccccc1C(=O)O — within error, 1.04 ± 0.031
- CN1CCN(C(=O)C[C@H]2CC[C@H]3[C@@H](COC[C@@H](O)CN3C(=O)Nc3ccc4c(c3)OCO4)O2)CC1 — lower, 1.06 ± 0.0044
- C[C@H]1CN([C@@H](C)CO)C(=O)Cc2cc(NC(=O)C3CCCCC3)ccc2O[C@@H]1CN(C)Cc1ccc(Cl)c(Cl)c1 — lower, 0.985 ± 0.021
- C[C@@H]1CN([C@@H](C)CO)C(=O)c2cc(C#CC3(O)CCCC3)cnc2O[C@@H]1CN(C)S(=O)(=O)c1cccc(F)c1 — within error, 1.06 ± 0.076
- C[C@@H]1CN([C@H](C)CO)C(=O)c2cccc(N(C)C)c2O[C@@H]1CN(C)Cc1ccncc1 — within error, 1.06 ± 0.092
- COc1cccc(-c2ccc3c(c2)[C@@H]2[C@@H](CCN2C(=O)c2ccccn2)[C@H](CO)N3)c1 — lower, 0.887 ± 0.028
- CO[C@@H]1CN(C)C(=O)c2ccc(NS(C)(=O)=O)cc2OC[C@H](C)N(CC2CC2)C[C@@H]1C — within error, 1.1 ± 0.054
- O=C(NC[C@H]1[C@H](c2ccccc2)[C@@H](CO)N1Cc1ccccn1)C1CCCC1 — lower, 0.9562 ± 0.0077
- COc1cccc(-c2ccc([C@H]3[C@@H](CO)N4C(=O)CN(C(=O)c5cccnc5)C[C@H]34)cc2)c1 — lower, 0.918 ± 0.11
- Cc1noc(C)c1NC(=O)Nc1ccc2c(c1)C(=O)N([C@H](C)CO)C[C@@H](C)[C@H](CN(C)S(=O)(=O)c1cccs1)OCCCC[C@H](C)O2 — lower, 0.886 ± 0.1
- CCCC(=O)N1C[C@@H]2[C@H](c3ccccc31)[C@H](CO)N2Cc1cocn1 — lower, 1.02 ± 0.022
- CN(C)CC(=O)N1[C@@H](CO)[C@@H]2c3ccccc3N(C(=O)Cc3ccccc3)C[C@@H]21 — lower, 0.956 ± 0.035
- O=C(N[C@@H]1CC[C@@H](CC(=O)N2CCOCC2)O[C@@H]1CO)c1cccc(F)c1 — lower, 0.966 ± 0.034
- O=C(C[C@@H]1CC[C@H]2[C@@H](COC[C@@H](O)CN2Cc2cc(F)cc(F)c2)O1)Nc1nccs1 — within error, 1.09 ± 0.039
- CCN(C[C@H]1[C@H](c2ccccc2)[C@@H](CO)N1C(=O)COC)S(C)(=O)=O — lower, 0.981 ± 0.049
- C[C@H](CO)N1C[C@H](C)[C@H](CN(C)C(=O)Nc2cccc(C(F)(F)F)c2)OCc2ccccc2-c2ccccc2C1=O — lower, 0.935 ± 0.014
- CO[C@@H](CN(C)C(=O)C1CCOCC1)[C@@H](C)CN([C@@H](C)CO)S(=O)(=O)c1ccccc1 — within error, 1.08 ± 0.11
- C[C@@H]1CCCCO[C@@H](CN(C)CC2CC2)[C@@H](C)CN([C@H](C)CO)C(=O)c2cc(NC(=O)c3ccccc3)ccc2O1 — within error, 1.14 ± 0.028
- O=C(C[C@@H]1CC[C@@H]2[C@H](COC[C@@H](O)CN2C(=O)c2ccccc2F)O1)NCc1ccc(Cl)c(Cl)c1 — within error, 1.1043 ± 0.00085
- COc1ccc(-c2ccc3n(c2=O)C[C@@H]2[C@@H](CO)[C@H](C(=O)N(C)C)[C@H]3N2Cc2cncnc2)cc1 — lower, 1.04 ± 0.017
- COc1ccc(C(=O)Nc2ccc3c(c2)C(=O)N(C)[C@H]2CC[C@H](CC(=O)NCC4CC4)O[C@H]2CO3)cc1 — lower, 0.823 ± 0.15
- CCNC(=O)C[C@@H]1CC[C@@H]2[C@H](COC[C@H](O)CN2C(=O)C2CCCC2)O1 — within error, 1.03 ± 0.065
- Cc1ccccc1-c1ccccc1[C@@H]1[C@H](C#N)N(C(=O)c2ccc(F)cc2)[C@H]1CO — within error, 1.15 ± 0.041
- CO[C@@H](CN(C)Cc1cc(F)ccc1F)[C@@H](C)CN([C@@H](C)CO)S(=O)(=O)c1ccc(C)cc1 — lower, 0.976 ± 0.0017
- O=C(c1cccc(F)c1)N1CC2(C1)[C@H](c1ccccc1)[C@H](CO)N2Cc1ccccn1 — within error, 1.15 ± 0.073
- C[C@H](CO)N1C[C@H](C)[C@H](CN(C)C(=O)CCC(F)(F)F)OCc2cnnn2CCCC1=O — within error, 1.06 ± 0.047
- CO[C@@H]1CC[C@@H]2CCOc3c(C#N)cccc3C(=O)N(C)CCCC(=O)N(C)C[C@@H]1O2 — lower, 1.02 ± 0.031
- CO[C@H]1CN(C)C(=O)c2cc(NS(C)(=O)=O)ccc2OC[C@H](C)N(C(=O)C2CCOCC2)C[C@H]1C — the same, 1.12 ± 0.048
- CC(C)NC(=O)NCC[C@H]1CC[C@H](NS(=O)(=O)c2ccc(Oc3ccccc3)cc2)[C@@H](CO)O1 — within error, 1.09 ± 0.041
- CN1C(=O)c2cc(NC(=O)Cc3cccs3)ccc2OC[C@@H]2O[C@H](CC(=O)NCCCN3CCOCC3)CC[C@H]21 — within error, 0.998 ± 0.074
- Cc1noc(C)c1NC(=O)Nc1ccc2c(c1)C(=O)N([C@@H](C)CO)C[C@H](C)[C@@H](CN(C)Cc1ccc3c(c1)OCO3)OCCCC[C@@H](C)O2 — within error, 1.13 ± 0.015
- CN1C(=O)c2cc(NC(=O)c3cscn3)ccc2OC[C@H]2O[C@@H](CC(=O)N3CCOCC3)CC[C@H]21 — within error, 1.11 ± 0.21
- Cc1ccc(S(=O)(=O)N(C)C[C@@H]2OCCCC[C@H](C)Oc3ccc(NC(=O)c4ccncc4)cc3C(=O)N([C@@H](C)CO)C[C@H]2C)cc1 — lower, 0.966 ± 0.073
- CO[C@@H](CN(C)Cc1nccs1)[C@H](C)CN([C@@H](C)CO)S(=O)(=O)c1ccc(F)cc1 — within error, 1.01 ± 0.078
- CS(=O)(=O)N1[C@@H](C#N)[C@@H](c2ccc(-c3ccccc3F)cc2)[C@@H]1CO — within error, 1.04 ± 0.03
- O=C(Nc1ccc(C(F)(F)F)cc1)N[C@@H]1C=C[C@@H](CC(=O)N2CCCCC2)O[C@H]1CO — within error, 1.111 ± 0.008
- CCCC(=O)Nc1ccc2c(c1)OC[C@H](C)NC[C@@H](C)[C@@H](OC)CN(C)C2=O — within error, 1.114 ± 0.0019
- COc1ccc(NC(=O)N2CC[C@@]3(CC2)CN([C@H](CO)c2c3c3ccc(OC)cc3n2C)C(=O)C2CCC2)cc1 — lower, 0.785 ± 0.057
- CO[C@H]1CN(C)C(=O)c2ccc(NS(C)(=O)=O)cc2OC[C@@H](C)N(C(=O)CN(C)C)C[C@H]1C — lower, 1.02 ± 0.017
- COc1ccc2c3c([nH]c2c1)[C@H](CO)N(Cc1ccccn1)C[C@]31CCN(CC1)C(C)=O — within error, 1.04 ± 0.053
